# The supplement of paper PMC10338343
# ± gives the standard deviation. The full ranking holds about 3,000 sequences; the median of “pre-steady-state target cleavage rate” is about 0.0079, and the highest 2% start at about 0.2. Only a part is listed here, and it is no random draw.
# Test system: MILI (PIWIL2) piRISC loaded with piRNA #2 (26 nt)
# Test: pre-steady-state target cleavage rate (min^-1); MIWI and MILI are mouse PIWI proteins and EfPiwi is from a freshwater sponge; tags in brackets are library labels; higher = faster piRNA-guided slicing of the target
# Conditions: guide: piRNA #2 5'p-UUAGGUAACCCAGUAGAUCCAGAGGA; auxiliary factor: 500 nM mouse GTSF1
# Experimental: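 Cleave-'n-Seq: a library of target RNAs (target site embedded in constant flanks, ACAGCATTCCGCGTTAGTGATATCCG... 5' flank; DNA-blocked outside the site) at 0.1 nM was incubated with 1 nM active mouse MILI or MIWI piRISC (synthetic 5'-monophosphorylated piRNA guide) with or without 500 nM mouse GTSF1 at 33 °C for 1 min to 16 h. Uncleaved targets were sequenced and normalised to non-target controls, and the pooled three trials were fitted to a burst-and-steady-state model to give the pre-steady-state cleavage rate (min^-1; k3 is constrained to at most 1e-4). Sequence is the target site only; target names encode pairing extent (gX:gY) and contiguous / 1-mismatch / 2-mismatch / bulge geometry. Fits with R² ≤ 0 are excluded.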
row,Sequence,pre-steady-state target cleavage rate
1,CUUAAGGAGAGCAUCUACUGGGUUACCAAA,0.00707 ± 0.005
2,CUUAAGGUCUGGAUCUAGUGGGUUAGCUAA,0.00749 ± 0.005
3,CUUAAGGAGUGGAUGUACAGGGUUACCUAA,0.0392 ± 0.0091
4,CUUAAGCUCUGGAUCGACUGGGUUACCUAA,0.0478 ± 0.0096
5,CUUAAGCUCUGGAUGUACUGGGUUACCUUA,0.0568 ± 0.016
6,CUUAACGUCUGGAUCUAGUGGGUUACCUAA,0.0564 ± 0.0094
7,CUUAAGGUCUGGAUCUACUGGGUUACCUUA,0.0544 ± 0.012
8,CUUAAGCUCUCGAUCUACUGGGUUAGCUAA,0.0146 ± 0.0083
9,CUUAAGCUCUGGAUCUACAGGGUUUCCUAA,0.0336 ± 0.0089
10,CUUAUGCCUCUGGAUCUACUGGGUUACCUAA,0.142 ± 0.038
11,CUUAAGGUCUGGAUCUUCUGGGUUACCAAA,0.0122 ± 0.0048
12,CUUAAGGAGAGCAUCUACAGGGUUACCUAA,0.0304 ± 0.011
13,CUUAAGGUCUGGAUCUACUGGGUUACCUAG [g2:g23:cont:t1G],0.112 ± 0.021
14,CUUAAGCAGUGGAUCUACUGGGUUACCUAA,0.0705 ± 0.017
15,CUUAUCCUCUGCAUCUACAGGGUUACCUAA,0.101 ± 0.022
16,CUUAAGGUCUGUAUCUACUGGGUUACCUAA,0.0419 ± 0.017
17,CUUAUCCUCAGGAUCUACUGGGUUACGUAA,0.0113 ± 0.0056
18,CUUAUCCUCUGGAUCUACUGAGUUACCUAA,0.0631 ± 0.016
19,CUUAAGGUCUGGAUCUAGUGGGUUACCUUA,0.0544 ± 0.015
20,CUUAACCUCUGGAUCUAGUGGGUUUCCUAA,0.0502 ± 0.017
21,CUUAAGGAGACCUACAACUGGGUAACCUAA,< 0.0001
22,CUUAUCCUCUGGAUGAUCUGGGUUACCUAA,0.0388 ± 0.012
23,CUUAAGCUCUCCUUCUACUGGGUUACCUAA,0.0472 ± 0.016
24,CUUAAGGUCUGGAGUCUACUGGGUUACCUAA,0.0424 ± 0.014

row,Sequence,pre-steady-state target cleavage rate
1,CUUAAGGACUCGAUCUACUGGGUUACCUUA,0.00654 ± 0.0038
2,CUUAUCCUCUGGAUCUAGUGGGUUACCAAA,0.0654 ± 0.012
3,CUUAAGGAGACGGAUCUACUGGGUUACCUAA,0.0103 ± 0.0042
4,CUUAAGCUCUGGAUGUACUGGGAUACCUAA,0.0202 ± 0.0073
5,CUUAAGGUCUGGAUCUACAGGGUUACGUAA,0.059 ± 0.014
6,CUUAAGGAGAGGAUCUACUGGGUUACCUAA [g2:g20:cont:t1A],0.0156 ± 0.0072
7,CUUAUCCUGUGGAUGUACUGGGUUACCUAA,0.084 ± 0.019
8,CUUAAGGACUGGAACUACUGGGUUACCUAA,0.0228 ± 0.016
9,CUUAACCUCUGGAUCUACUGGGUUACACUAA,0.179 ± 0.034
10,CUUAUCCUCUGGAUCUACUGGGUAACCAAA,0.0461 ± 0.017
11,CUUAAGCUCUGGAACUACUGGGUUACCUAA,0.0845 ± 0.022
12,CUUAAGGUCUGGAUCUACUGGGUUAUCUAA,0.0655 ± 0.012
13,CUUAAGCUCUGGUUCUACUGGGUUAGCUAA,0.0824 ± 0.034
14,CUUAAGGAGUGGCUCUACUGGGUUACCUAA,0.0556 ± 0.017
15,CUUAAGGAGUGGAUCUACUGUGUUACCUAA,0.00967 ± 0.0061
16,CUUAAGGUCUGGAAUCUACUGGGUUACCUAA,0.0527 ± 0.013
17,CUUAACCUGUGGAUCUACUGGGUUACCUUA,0.08 ± 0.019
18,CUUAAGCUCAGGAUCUAGUGGGUUACCUAA,0.05 ± 0.014
19,CUUAACCACUGGUUCUACUGGGUUACCUAA,0.112 ± 0.019
20,CUUAACCUCUGGAUCUACUGGGUUAGCCUAA,0.15 ± 0.035
21,CUUAAGCUCUGGAUCUACACGGUUACCUAA,0.00855 ± 0.0027
22,CUUAAGGAGUGGAUCAACUGGGUUUCCUAA,0.00749 ± 0.0043
23,CUUAAGGUCUGGAUCUACACGGUUACCUAA,0.011 ± 0.0029
24,CUUAAGGUCUUGGAUCUACUGGGUUACCUAA,0.113 ± 0.026

row,Sequence,pre-steady-state target cleavage rate
1,CUUAACCUCUCGAUCUACUGGCUUACCUAA,0.00579 ± 0.0036
2,CUUAAGGAGAGGUUCUACAGGGUUACCUAA,0.0098 ± 0.0054
3,CUUAAGGAGAGGAUCUACUGGGUAACCUAA,0.00614 ± 0.0037
4,CUUAAGGUCUGGACUCUACUGGGUUACCUAA,0.0367 ± 0.014
5,CUUAUCCUCUGGUUCAACUGGGUUACCUAA,0.225 ± 0.063
6,CUUAACGACUGGAUCUACUGGGUUACCUAA,0.0763 ± 0.016
7,CUUAACCUCUGGAACAACUGGGUUACCUAA,0.0723 ± 0.02
8,CUUAACCUCUGGAUCUUCUGGGUUACCUUA,0.0805 ± 0.02
9,CUUAAGGUCUGGAACUACAGGGUUACCUAA,0.0426 ± 0.011
10,CUUAAGCUGUGGAACUACUGGGUUACCUAA,0.0243 ± 0.013
11,CUUAAGCUCUGCAUCUACUGGGUUACCUUA,0.0789 ± 0.017
12,CUUAUCCUCUGGUUCUACUGGCUUACCUAA,0.00964 ± 0.005
13,CUUAAGGUACUGGAUCUACUGGGUUACCUAA,0.0665 ± 0.022
14,CUUAAGGAGACCUAGAUGUGGGUUACCGAA,< 0.0001
15,CUUAAGCACUGGAUCUACUGGGUUACCAAA,0.0791 ± 0.017
16,CUUAUCCUCUGGAUGUUCUGGGUUACCUAA,0.0834 ± 0.015
17,CUUAUCCUGAGGAUCUACUGGGUUACCUAA,0.0211 ± 0.0074
18,CUUAAGGAGUGGAUCUACUGGGAUUACCUAA,0.0083 ± 0.0035
19,CUUAAGGAGUGGAACUACAGGGUUACCUAA,0.0101 ± 0.0072
20,CUUAAGGUCUGGAUCUACUGGGUUACCGUAA,0.0456 ± 0.014
21,CUUAAGCUCUGGAUCUACUGGGUUACACUAA,0.112 ± 0.019
22,CUUAACCUCUGGAUCUACUGGGUUACCUCAA,0.09 ± 0.019
23,CUUAAGCUGUCGAUCUACUGGGUUACCUAA,0.0193 ± 0.0091
